# Results published in the supplement of paper PMC8728848.
# The other results are listed elsewhere or left out.
# B1: Si Bti9 1b-HA (Solanum lycopersicum) (protein)
# chain: MFESRPRSVLSLGVFVILVYLSSVPLPVNSQCNRGCDLALASFYVWRGSNLTLISEMFSTSIADIVSYNNRDNIPNQDSVIAGTRINIPFRCDCLNDGEVLGHAFPYRVKSGDTYDLVARNYSDLTTAQWMMKFNSYPENNIPNTVNLSVVVNCSCGNSDVSKDFGLFVTYPVRAEDNLTSVASAANVSEDIIRRYNPAAVSILDIGQGIIYIPGRDRNGNFPPLPTSTDGLSGGAKAPLFFNPAFLYKVVELKLAGRSRTSGYPYDVPDYAGYPYDVPDYALEVLFQ
# Tests used:
# Assay in all cases: glycan array binding signal (z-score within array); higher = stronger binding
# Settings in all cases: glycan notation: IUPAC condensed, linker removed
# [1] = biological target: Fuc(a1-2)Gal(b1-4)GlcNAc(b1-3)Gal(b1-4)GlcNAc(b1-3)Gal(b1-4)GlcNAc
# Method in brief: (§1)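 Arrays were curated from the Consortium for Functional Glycomics database, 3228 in total, and kept only where the protein sequence was available. Binding is expressed as a within-array Z-score. This score was averaged across arrays of the same protein sequence at different concentrations or buffers and across linkers, and negative values can be read as non-binding.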
# [2] = biological target: Fuc(a1-2)Gal(b1-4)GlcNAc(b1-3)GalNAc
# Method in brief: as §1
# [3] = biological target: Fuc(a1-2)Gal(b1-4)GlcNAc(b1-3)[Fuc(a1-2)Gal(b1-4)GlcNAc(b1-6)]GalNAc
# Method in brief: as §1
# [4] = biological target: Fuc(a1-2)Gal(b1-4)GlcNAc(b1-3)[Fuc(a1-3)[Gal(b1-4)]GlcNAc(b1-6)]Gal(b1-4)Glc
# Method in brief: as §1
# [5] = biological target: Fuc(a1-2)Gal(b1-4)GlcNAc(b1-6)GalNAc
# Method in brief: as §1
# [6] = biological target: Fuc(a1-2)Gal(b1-4)GlcNAc6S
# Method in brief: as §1
# [7] = biological target: Fuc(a1-2)Gal(b1-4)[Fuc(a1-3)]GlcNAc
# Method in brief: as §1
# [8] = biological target: Fuc(a1-2)Gal(b1-4)[Fuc(a1-3)]GlcNAc(b1-2)Man(a1-3)[Fuc(a1-2)Gal(b1-4)[Fuc(a1-3)]GlcNAc(b1-2)Man(a1-6)]Man(b1-4)GlcNAc(b1-4)[Fuc(a1-6)]GlcNAc
# Method in brief: as §1
# [9] = biological target: Fuc(a1-2)Gal(b1-4)[Fuc(a1-3)]GlcNAc(b1-2)[Fuc(a1-2)Gal(b1-4)[Fuc(a1-3)]GlcNAc(b1-4)]Man(a1-3)[Fuc(a1-2)Gal(b1-4)[Fuc(a1-3)]GlcNAc(b1-2)Man(a1-6)]Man(b1-4)GlcNAc(b1-4)GlcNAc
# Method in brief: as §1
# [10] = biological target: Fuc(a1-2)Gal(b1-4)[Fuc(a1-3)]GlcNAc(b1-3)Gal(b1-4)[Fuc(a1-3)]GlcNAc
# Method in brief: as §1
# [11] = biological target: Fuc(a1-2)Gal(b1-4)[Fuc(a1-3)]GlcNAc(b1-3)Gal(b1-4)[Fuc(a1-3)]GlcNAc(b1-3)Gal(b1-4)[Fuc(a1-3)]GlcNAc
# Method in brief: as §1
# [12] = biological target: Fuc(a1-2)Gal(b1-4)[Fuc(a1-3)]GlcNAc(b1-3)GalNAc
# Method in brief: as §1
# [13] = biological target: Fuc(a1-2)Gal(b1-4)[Fuc(a1-3)]GlcNAc(b1-3)[Neu5Ac(a2-6)Gal(b1-4)GlcNAc(b1-6)]Gal(b1-4)Glc
# Method in brief: as §1
# [14] = biological target: Fuc(a1-2)Gal3S(b1-4)GlcNAc
# Method in brief: as §1
# [15] = biological target: Fuc(a1-2)Gal6S(b1-3)GlcNAc
# Method in brief: as §1
# [16] = biological target: Fuc(a1-2)Gal6S(b1-3)GlcNAc6S
# Method in brief: as §1
# [17] = biological target: Fuc(a1-2)Gal6S(b1-4)Glc
# Method in brief: as §1
# [18] = biological target: Fuc(a1-2)Gal6S(b1-4)Glc6S
# Method in brief: as §1
# [19] = biological target: Fuc(a1-2)[Gal(a1-3)]Gal
# Method in brief: as §1
# [20] = biological target: Fuc(a1-2)[Gal(a1-3)]Gal(b1-3)GalNAc
# Method in brief: as §1
# [21] = biological target: Fuc(a1-2)[Gal(a1-3)]Gal(b1-3)GalNAc(b1-3)Gal(a1-4)Gal(b1-4)Glc
# Method in brief: as §1
# [22] = biological target: Fuc(a1-2)[Gal(a1-3)]Gal(b1-3)GlcNAc
# Method in brief: as §1
# [23] = biological target: Fuc(a1-2)[Gal(a1-3)]Gal(b1-3)GlcNAc(b1-2)Man(a1-3)[Fuc(a1-2)[Gal(a1-3)]Gal(b1-3)GlcNAc(b1-2)Man(a1-6)]Man(b1-4)GlcNAc(b1-4)GlcNAc
# Method in brief: as §1
# [24] = biological target: Fuc(a1-2)[Gal(a1-3)]Gal(b1-3)GlcNAc(b1-2)Man(a1-3)[Fuc(a1-2)[Gal(a1-3)]Gal(b1-3)GlcNAc(b1-2)Man(a1-6)]Man(b1-4)GlcNAc(b1-4)[Fuc(a1-6)]GlcNAc
# Method in brief: as §1
# [25] = biological target: Fuc(a1-2)[Gal(a1-3)]Gal(b1-3)GlcNAc(b1-3)GalNAc
# Method in brief: as §1
# [26] = biological target: Fuc(a1-2)[Gal(a1-3)]Gal(b1-3)GlcNAc(b1-6)GalNAc
# Method in brief: as §1
# [27] = biological target: Fuc(a1-2)[Gal(a1-3)]Gal(b1-4)Glc
# Method in brief: as §1
# [28] = biological target: Fuc(a1-2)[Gal(a1-3)]Gal(b1-4)GlcNAc
# Method in brief: as §1
# [29] = biological target: Fuc(a1-2)[Gal(a1-3)]Gal(b1-4)GlcNAc(b1-2)Man
# Method in brief: as §1
# [30] = biological target: Fuc(a1-2)[Gal(a1-3)]Gal(b1-4)GlcNAc(b1-2)Man(a1-3)[Fuc(a1-2)[Gal(a1-3)]Gal(b1-4)GlcNAc(b1-2)Man(a1-6)]Man(b1-4)GlcNAc(b1-4)GlcNAc
# Method in brief: as §1
binder,measurement,setting,value
B1,glycan array binding signal (z-score),[1],-0.455
same,glycan array binding signal (z-score),[2],-0.344
same,glycan array binding signal (z-score),[3],-0.037
same,glycan array binding signal (z-score),[4],-0.494
same,glycan array binding signal (z-score),[5],0.3
same,glycan array binding signal (z-score),[6],-0.271
same,glycan array binding signal (z-score),[7],-0.424
same,glycan array binding signal (z-score),[8],0.054
same,glycan array binding signal (z-score),[9],-0.068
same,glycan array binding signal (z-score),[10],-0.28
same,glycan array binding signal (z-score),[11],-0.112
same,glycan array binding signal (z-score),[12],0.141
same,glycan array binding signal (z-score),[13],-0.201
same,glycan array binding signal (z-score),[14],-0.035
same,glycan array binding signal (z-score),[15],-0.239
same,glycan array binding signal (z-score),[16],0.838
same,glycan array binding signal (z-score),[17],-0.028
same,glycan array binding signal (z-score),[18],-0.19
same,glycan array binding signal (z-score),[19],-0.309
same,glycan array binding signal (z-score),[20],-0.11
same,glycan array binding signal (z-score),[21],-0.308
same,glycan array binding signal (z-score),[22],1.43
same,glycan array binding signal (z-score),[23],-0.203
same,glycan array binding signal (z-score),[24],2.04
same,glycan array binding signal (z-score),[25],-0.307
same,glycan array binding signal (z-score),[26],0.175
same,glycan array binding signal (z-score),[27],0.486
same,glycan array binding signal (z-score),[28],-0.227
same,glycan array binding signal (z-score),[29],-0.31
same,glycan array binding signal (z-score),[30],0.315
